Laboratory results taken from ChEMBL document CHEMBL1201862, “PubChem BioAssay data set” (2004).
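96-well plates; 48 h exposure; 5 concentrations. Endpoints by linear interpolation between flanking doses. Not reached: highest tested concentration assigned. The concentration for 50% growth inhibition is given as GI50.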 Activity calls are given as the source filed them. No stated cut-off is given here; in the data, active = GI50 up to about 1.1 µM and inactive = higher.

Tested on: NCI-H322M
Assay: NCI tumour cell line growth inhibition, 48 h

| SMILES | GI50 |
| --- | --- |
| COc1cc(C2c3cc4c(cc3[C@@H](Nc3cccc([N+](=O)[O-])c3)C3COC(=O)[C@H]23)OCO4)cc(OC)c1O (stereo partly drawn) | inactive: 21.4 µM |
| N#CC1C=Cc2ccccc2N1C(=O)Oc1ccccc1 (stereo not drawn) | inactive: 49 µM |
| COc1ccc(N2C(=O)C3c4[nH]c5ccccc5c4C4CC(C)CC(C)C4C3C2=O)cc1 (stereo not drawn) | inactive: > 100 µM |
| O=c1[nH]c(-c2ccc(Cl)cc2)cc2ccsc12 | inactive: 3.96 µM |
| Cc1ccsc1/C=N/Nc1ccccn1 | inactive: > 100 µM |
| COc1ccc(C(NCCNC(c2ccc(OC)c(OC)c2)c2cc3c(cc2O)OCO3)c2cc3c(cc2O)OCO3)cc1OC (stereo not drawn) | inactive: 8.91 µM |
| Cc1ccc(C)c(NC(=O)CCc2n[nH]c(=S)o2)c1 | inactive: > 100 µM |
| COc1cccc(/N=N/C(=NNC(=O)c2ccc(C)cc2)c2ccc(N(C)C)cc2)c1 | inactive: 95.9 µM |
| O=C(/C=C/c1ccc(Cl)cc1)c1ccncc1 | inactive: 67 µM |
| C=C1c2nc3ccccc3n2C=C(c2ccc(C)cc2)N1c1ccccc1 | inactive: 6.44 µM |
| CCc1ccccc1NC(=O)C(=O)CC(=O)c1sc(Nc2ccccc2Cl)nc1C | inactive: 39.8 µM |
| CN1C(=O)C(CCO)(C(C)(C)C)c2ccccc21 (stereo not drawn) | inactive: > 100 µM |
| C[C@@H]1[C@@H](c2ccccc2)O[B-](c2ccccc2)(c2ccccc2)N1C | inactive: 70.6 µM |
| c1ccc(C(NC2=NCCO2)C2CC2)cc1 (stereo not drawn) | inactive: > 100 µM |
| CC(=O)O[C@H]1CC[C@@]2(C)C(=CC[C@@H]3[C@@H]2CC[C@]2(C)C(=N/O)/C(=C/c4ccc([N+](=O)[O-])cc4)C[C@@H]32)C1 | inactive: 17 µM |
| O=C(OCC1CC(C2(O)CCCCC2)C(=O)O1)c1ccccc1 (stereo not drawn) | inactive: > 100 µM |
| COc1cc2c(cc1O)N=C[C@@H]1CC[C@@H](O)N1C2=O.COc1cc2c(cc1O)N=C[C@@H]1CC[C@H](O)N1C2=O | inactive: 4.73 µM |
| O=C(C1OC1c1ccc(Br)cc1O)C12CC3CC(CC(C3)C1)C2 (stereo not drawn) | inactive: 91.2 µM |
| COC(=O)N/N=C(/CC1(O)C(=O)Nc2ccc([N+](=O)[O-])cc21)c1ccccc1 (stereo not drawn) | inactive: > 47.9 µM |
| Oc1c(Br)c(-c2ccccc2)nc2ccccc12 | inactive: > 100 µM |
| O=C1CCC2(O)c3ccccc3C2Cc2ccccc21 (stereo not drawn) | inactive: > 100 µM |
| COC(=O)NC1C(C)OC(OC2C/C=C(/C)C3C=CC4C(OC5CC(OC6CCC(OC7CC(O)C(OC8CCC(O)C(C)O8)C(C)O7)C(C)O6)C(OC(C)=O)C(C)O5)C(C)CC(C)C4C3(C)/C(O)=C3/C(=O)OC4(CC(C=O)=CC(O)C4/C=C\2C)C3=O)CC1(C)[N+](=O)[O-] (stereo not drawn) | inactive: 1.92 µM |

| SMILES | GI50 |
| --- | --- |
| O=c1cc(-c2ccccc2)oc2cc(OCCSCCCCCCCCCCSCCOc3ccc4c(=O)cc(-c5ccccc5)oc4c3)ccc12 | inactive: > 100 µM |
| CCOC(=O)C1CCCCN1C(=O)Cc1c[nH]c2ccccc12 (stereo not drawn) | inactive: > 100 µM |
| CCOc1cc(C2CC(c3ccc(NS(=O)(=O)c4cc([N+](=O)[O-])ccc4C)cc3)=NN2S(=O)(=O)c2cc([N+](=O)[O-])ccc2C)ccc1O (stereo not drawn) | inactive: 64.3 µM |
| Nc1nc(Cl)cc(OCC2(CO)CC=CC2)n1 | inactive: > 100 µM |
| CCc1cccc(C(C)CC)c1/N=C(/NC(=O)c1ccccc1C(=O)N/C(=N/c1c(CC)cccc1C(C)CC)SC)SC (stereo not drawn) | inactive: 43.2 µM |
| O=C1CC2(CCC3=C(O2)c2ccccc2NC(=O)C3)C(=O)c2ccccc2N1 (stereo not drawn) | inactive: > 10 µM |
| CN(C)C(=S)/N=c1\ss/c(=N\C(=S)N(C)C)n1Cc1ccco1 | inactive: > 100 µM |
| COc1cc(Br)c(/C=N/N=C(\N)NO)cc1OC | inactive: 4.62 µM |
| CC1=C(C(=O)Nc2ccccc2C)C(c2ccc(C3C(C(=O)Nc4ccccc4C)=C(C)NC(C)=C3C(=O)Nc3ccccc3C)cc2)C(C(=O)Nc2ccccc2C)=C(C)N1 | inactive: 10.4 µM |
| OCC1C2C=CC(O2)[C@H]1CO (stereo partly drawn) | inactive: > 100 µM |
| CC(=O)c1c(C)[n+]([O-])c2cc(Cl)c(Cl)cc2[n+]1[O-] | inactive: 20.6 µM |
| C=C(C)C12OC3(c4ccccc4)OC1C1C4OC4(CO)C(O)C4(O)C(=O)C(C)=CC4C1(O3)C(C)C2OC(=O)/C=C/C=C/c1ccccc1 (stereo not drawn) | active: 0.228 µM |
| CCCCCCCCCCCCC/C=C(/COCC[N+](C)(C)C)OC(C)=O.CCCCCCCCCCCCCC/C(=C/OCC[N+](C)(C)C)OC(C)=O | inactive: 2.96 µM |
| CCN1C(=O)C(N=[N+]=[N-])(c2ccccc2)C(=O)c2ccccc21 (stereo not drawn) | inactive: > 100 µM |
| COC1(OC)CCCc2c1no[n+]2[O-] | inactive: > 100 µM |
| NS(=O)(=O)c1ccc(NC(=O)COC(=O)c2cccc3c(=O)c4ccccc4[nH]c23)cc1 | inactive: 24.2 µM |
| Cc1nc(-c2nc(C)c(C(=O)/C=C/c3ccc([N+](=O)[O-])cc3)s2)sc1C(=O)/C=C/c1ccc([N+](=O)[O-])cc1 | inactive: > 100 µM |
| CCOC(=O)/C=C/C1(CCOC(C)=O)CCCCC1 | inactive: > 10 µM |
| N#Cc1ccccc1NC(=O)C(O)C(O)C(O)C(O)C=O (stereo not drawn) | inactive: > 100 µM |
| CC(C)CCC[C@@H](C)C1CCC2[C@@H]3CCC4CC(CCC=C(c5cc(Cl)c(OC(=O)c6ccccc6)c(C(=O)O)c5)c5cc(Cl)c(OC(=O)c6ccccc6)c(C(=O)O)c5)CC[C@]4(C)C3CC[C@@]21C (stereo partly drawn) | inactive: 74.5 µM |
| Cc1nc2c(nc1C)-c1[nH]c3c(c1C(=O)C2=O)CCCC3=O | inactive: 9.66 µM |
| CC(C)CC(N)C(=O)O (stereo not drawn) | inactive: > 100 µM |

| SMILES | GI50 |
| --- | --- |
| C/C(=C\c1ccc(Cl)cc1)C(C)(C)C(=O)O | inactive: > 100 µM |
| C[N+](C)([O-])CCCNc1c2ccccc2nc2cccc([N+](=O)[O-])c12 | active: 0.528 µM |
| C1CCC2C(C1)CCCC2NC1=NCCO1 (stereo not drawn) | inactive: > 100 µM |
| C=C1C(=O)O[C@@H]2C[C@@]3(C)[C@H](O)CCC(=C)[C@@H]3C[C@H]12 [ASPERILIN] | inactive: 7.52 µM |
| N=C(N)NS(=O)(=O)c1ccc(NC(=O)c2ccc3nc4ccccc4c(N)c3c2)cc1 | inactive: 69.8 µM |
| COc1cc(C2c3[nH]c4ccc(F)cc4c3C[C@H]3COC(=O)N23)cc(OC)c1O (stereo partly drawn) | inactive: 24.8 µM |
| Cc1cnc2nc(-c3ccc4ccccc4c3)cc(O)c2c1 | active: 0.446 µM |
| C[C@@H](CC(O)C1OC1(C)C)[C@@H]1CC[C@]2(C)C3=CCC4C(C)(C)C(O)CC[C@]4(C)C3CCC12C (stereo partly drawn) | inactive: 26.5 µM |
| CCOC(C/N=c1/nc(N(C)C)ss1)OCC | inactive: > 85.9 µM |
| ClC1(Cl)C2CCOC21n1cnc2ccccc21 (stereo not drawn) | inactive: > 100 µM |
| O=C(O)CCC(=O)C(=O)O [ALPHA-KETOGLUTARIC ACID] | inactive: > 100 µM |
| COc1ccc(C2COc3cc(O)c(O)cc3C2)cc1 (stereo not drawn) | inactive: 55.7 µM |
| COc1ccc(C2=NN(c3ccccc3)C[N+](c3ccc(OC)cc3)=N2)cc1 | inactive: 25.1 µM |
| N#CCCc1nc2ccc(Br)cc2c(=O)n1-c1ccc(O)c([N+](=O)[O-])c1 | inactive: 16.4 µM |
| Cc1ccc(C(=O)/C=C(\O)C(=O)NN=C(c2ccccc2)c2ccccc2)cc1 | inactive: > 100 µM |
| CN(Cc1cnc2nc(N)nc(N)c2n1)c1ccc(C(=O)NC(CCC(=O)NCCC(P(=O)(O)O)P(=O)(O)O)C(=O)O)cc1 (stereo not drawn) | inactive: > 48.2 µM |
| CN1C(c2ccccc2)CC(=Nc2ccccc2)CC1c1ccccc1 (stereo not drawn) | inactive: 18.4 µM |
| CC(C)COP(C)(=O)C(N)(C(F)(F)F)C(F)(F)F (stereo not drawn) | inactive: > 100 µM |
| Fc1ccc(/N=C2C=C/C(=N\c3ccc(F)cc3)c3ccccc3\2)cc1 | inactive: > 100 µM |
| NC(Cc1ccccc1)(C(=O)O)C(=O)O | inactive: > 100 µM |
| COc1ccc(/C=N/N=C(\N)NO)c(OC)c1C | inactive: 5.74 µM |
| CN1CCN(CCCN)CC1 | inactive: > 100 µM |

| SMILES | GI50 |
| --- | --- |
| COC(=O)C1=C(C(=O)OC)C2(OC(C)=O)c3ccccc3-c3ccccc3C12 (stereo not drawn) | inactive: 19.3 µM |
| O=c1[nH]c(=O)n(COCc2ccccc2)c2ccccc12 | inactive: > 100 µM |
| CCNC(=O)c1c(O)nc2ccccc2c1O | inactive: 94 µM |
| CC(=O)O[C@H]1[C@@H](N2CCOCC2)C[C@H]2[C@@H]3CC=C4C[C@@H](N5CCCC5)CC[C@]4(C)[C@H]3CC[C@@]21C | inactive: > 100 µM |
| CCCCCC/C=C1\CCC(CN(C)C)C1=O (stereo not drawn) | inactive: 18.2 µM |
| O=c1cc(NNc2ccccc2)[nH]c(=O)[nH]1 | inactive: 23.6 µM |
| C=C1CCCC2[C@](C)(CC3=C(Cl)C(=O)C=C(OC)C3=O)C(C)CC[C@]12C (stereo partly drawn) | inactive: 8.99 µM |
| COc1c(O)cc(/C=C/c2cc(O)cc3c2[C@@]2(C(=O)O3)c3c(O)cc(O)cc3OC2c2cccc(O)c2)cc1O (stereo partly drawn) | inactive: > 100 µM |
| COC(=O)c1cc(C#N)[nH]c1-c1ccsc1 | inactive: > 100 µM |
| COc1cc(CNc2ccc3nc4n(c(=O)c3c2)CCCCC4)cc(OC)c1OC | inactive: > 100 µM |
| CCc1cc(Cc2cc(Cl)c(NC(=O)C(=O)C3NC(=O)NC3=O)c(CC)c2)cc(Cl)c1NC(=O)C(=O)C1NC(=O)NC1=O (stereo not drawn) | inactive: 36.7 µM |
| NC(=O)N1N=C2c3ccccc3CC[C@@H]2C1c1ccccc1 (stereo partly drawn) | inactive: > 100 µM |
| O=C(Oc1ccc(C(c2c(O)c3ccccc3oc2=O)c2c(O)c3ccccc3oc2=O)cc1)c1ccc(C(=O)c2ccccc2)cc1 | inactive: 27.4 µM |
| O=CCOCc1cc2c(cc1Br)OCO2 | inactive: > 100 µM |
| Cn1c(=O)c2c(ncn2Cc2ccc(O)c([N+](=O)[O-])c2)n(C)c1=O | inactive: > 100 µM |
| C/C(=N\O)c1cccc(Nc2nc3ccccc3c3occc23)c1 | inactive: 13.2 µM |
| CNC(=O)c1ccc(C(=O)NCCCCCN(O)C(=O)CCC(=O)NCCCCCN(O)C(=O)CCC(=O)NCCCCCN(O)C(C)=O)c(O)c1O | inactive: 14.3 µM |
| CC(C)=CCc1c(O)cc2oc(-c3ccc(O)cc3O)cc(=O)c2c1O | inactive: 33 µM |
| CC(=O)OCC1OC(Nc2ncc(-c3ccc(C)cc3)s2)C(OC(C)=O)C(OC(C)=O)C1OC(C)=O (stereo not drawn) | inactive: 68.9 µM |
| CNC(=O)CN(C)C(=O)CCC(=O)N(C)C | inactive: > 100 µM |
| Cc1ns/c(=N\C(=S)N(C)C)n1C | inactive: > 100 µM |
| N#Cc1cccc(/C=N/C23CC4CC(CC(C4)C2)C3)c1 | inactive: > 100 µM |
